Results as given in the supplement of paper PMC3334620.
Over roughly 33,000 sequences, “E-score (-0.5 to 0.5)” has its median near -0.056; the highest 2% begin near 0.38. The list shows a part of the results.

target: Stb4 (UniProt P50104); experiment: PBM E-score (8-mer binding enrichment) (E-score (-0.5 to 0.5)); higher = stronger / more preferred TF binding; most listed sequences are background and not binding sites; conditions: protein concentration: 200 nM; construct: GST-DNA-binding domain
How it was run: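 Yeast transcription factors carrying a GST tag, as full-length proteins or DNA-binding domains, were produced by PURExpress in vitro transcription/translation. About 100-200 nM protein was applied to universal all-10-mer Agilent arrays, double-stranded by primer extension on fresh or once-stripped slides. Bound protein was detected with fluorescent anti-GST, and scans were normalised with masliner. The Universal PBM Analysis Suite gave each ungapped eight-base word, pooled with its reverse complement, an E-score, a modified Wilcoxon-Mann-Whitney statistic.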

First: CGGATCAG
Second: CAACATCG
The “PBM E-score” value of the first is higher: 0.33 for the first, -0.0467 for the second.

Compared with ACGGGTAT, GGCAACTA is lower in “PBM E-score” value: 0.373 for the first, -0.0479 for the second.

Going from GCAAACAA to AGTCAAAC, the “PBM E-score” value rises from -0.107 to -0.0117.

Compared with GGCGTCCA, CAACGTTG is lower in “PBM E-score” value: -0.0146 for the first, -0.203 for the second.

First: AATTCGGA
Second: CTCGTTAA
The “PBM E-score” value of the first is higher: 0.447 for the first, -0.0155 for the second.

Compared with ACGTTTAA, ATCTTTGC is higher in “PBM E-score” value: -0.24 for the first, -0.0773 for the second.

Compared with ATCTGGAA, CAAGGGGG is lower in “PBM E-score” value: -0.0521 for the first, -0.306 for the second.

Compared with CCGTACAC, AAGTGTGA is lower in “PBM E-score” value: 0.0242 for the first, -0.128 for the second.

Compared with GCCACGCA, CGTCCTAC is higher in “PBM E-score” value: 0.0425 for the first, 0.0518 for the second.

Compared with TCCTTACA, ATAGTAAT is lower in “PBM E-score” value: 0.0268 for the first, 0.0187 for the second.

Compared with AGACCAGG, AGTTACAA is higher in “PBM E-score” value: -0.0986 for the first, 0.0669 for the second.

Compared with AACTAGAT, GACGGCGC is lower in “PBM E-score” value: 0.0474 for the first, 0.0126 for the second.

Going from AGCGCAAA to GAACATCC, the “PBM E-score” value rises from -0.0911 to 0.305.

Compared with CCCATACC, ACGAAGCC is lower in “PBM E-score” value: 0.105 for the first, 0.0612 for the second.

First: GACCACGA
Second: ATGACGTG
The “PBM E-score” value of the first is lower: -0.259 for the first, -0.174 for the second.

Going from CACGCGTA to CTGTACCA, the “PBM E-score” value falls from -0.13 to -0.188.

First: AATGCTGC
Second: ACACTAAG
The “PBM E-score” value of the first is higher: -0.188 for the first, -0.375 for the second.

Compared with TCTATGCA, GGAAAAAC is higher in “PBM E-score” value: -0.29 for the first, 0.22 for the second.

Going from GTGCTAGA to GCAGTGAC, the “PBM E-score” value rises from -0.254 to -0.118.

Compared with GGCATTCA, AGGAATAT is higher in “PBM E-score” value: 0.0135 for the first, 0.144 for the second.

Compared with ATTAGGCA, CGAGACGA is higher in “PBM E-score” value: -0.144 for the first, 0.132 for the second.

First: GGCGCCCC
Second: AAACCGGC
The “PBM E-score” value of the first is lower: -0.0201 for the first, 0.26 for the second.

First: GCTTGCAC
Second: CCTATCAC
The “PBM E-score” value of the first is higher: -0.107 for the first, -0.223 for the second.

Going from CTGTCTCC to ACGCTCCT, the “PBM E-score” value falls from 0.0443 to -0.27.

First: TACAGGTA
Second: AAATCACT
The “PBM E-score” value of the first is higher: -0.151 for the first, -0.176 for the second.

First: AGCGCATC
Second: TGCTGAAA
The “PBM E-score” value of the first is higher: -0.0401 for the first, -0.154 for the second.

First: ATGCCATG
Second: CATCGCGG
The “PBM E-score” value of the first is lower: -0.0915 for the first, 0.0818 for the second.

Going from GGACAGCC to GGCCGACA, the “PBM E-score” value rises from 0.132 to 0.209.

First: CGCAGCCC
Second: GCGCTAGC
The “PBM E-score” value of the first is higher: -0.00709 for the first, -0.199 for the second.

Going from AACCCTCA to CGGCTTCC, the “PBM E-score” value rises from -0.148 to 0.29.

Going from AGCGGCCG to ATCAATCA, the “PBM E-score” value falls from 0.158 to -0.109.

Going from CGGCTGAA to CACATTGG, the “PBM E-score” value falls from 0.253 to -0.111.

Going from GCAAGACC to CCTTCGGC, the “PBM E-score” value rises from -0.0268 to 0.335.

Compared with TAGGTTGA, ATCTGGAG is lower in “PBM E-score” value: -0.012 for the first, -0.138 for the second.

Compared with CCGTGTGC, GGGAGAAA is lower in “PBM E-score” value: 0.151 for the first, 0.115 for the second.

First: GTGTATTA
Second: CAGGTTGC
The “PBM E-score” value of the first is higher: -0.0717 for the first, -0.0961 for the second.

Compared with CCGGCTAG, GGCCACCC is lower in “PBM E-score” value: 0.317 for the first, 0.0792 for the second.

First: AGTGCACT
Second: AGGCTGCA
The “PBM E-score” value of the first is higher: 0.0616 for the first, -0.147 for the second.

First: ACTGAACT
Second: GACCTATA
The “PBM E-score” value of the first is lower: -0.124 for the first, 0.103 for the second.

Going from AGAGACGG to AGGTGTGA, the “PBM E-score” value rises from -0.0612 to 0.0116.

Going from ATAGCAAC to AAGAGGGA, the “PBM E-score” value falls from -0.0565 to -0.281.

Compared with CGACGCAA, TCGCCGCA is lower in “PBM E-score” value: 0.135 for the first, -0.0352 for the second.

Going from ACTAGTGG to AGTCTGTC, the “PBM E-score” value falls from -0.151 to -0.215.
